Measured values from the supplement of paper PMC8748497.
The other results are listed elsewhere or left out.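 How the source made its calls: active = GRHL reporter fold change of at least 2 over DMSO at 10 µM; inactive = below 2-fold.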 Single values are uncertain, as repeats are few or missing.

System: HEK293 GRHL-luciferase reporter
Assay: GRHL luciferase reporter activity, fold change over DMSO control; higher = stronger GRHL reporter activation
Conditions: 10 µM; 24 h
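Further: stable HEK293 line carrying repeated GRHL consensus sites upstream of a minimal promoter driving luciferase, luminescence read 24 h post-treatment, normalized to 0.5% DMSO vehicle wells.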

Row | SMILES | GRHL luciferase reporter activity
1 | Oc1c(I)cc(I)c2cccnc12 | inactive: 0.907
2 | COC(=O)[C@@H]1CC2=CC(=O)CC[C@]2(C)[C@@]23O[C@@H]2C[C@@]2(C)[C@@H](CC[C@@]24CCC(=O)O4)[C@H]13 | inactive: 0.977
3 | COc1cc(OC)c(C(=O)CCCN2CCCC2)c(OC)c1 | inactive: 0.979
4 | COCCCOc1cc(C[C@@H](C[C@H](N)[C@@H](O)C[C@H](C(=O)NCC(C)(C)C(N)=O)C(C)C)C(C)C)ccc1OC | inactive: 1.12
5 | CCCCCC1C(=O)CCC1CC(=O)OC (stereo unspecified) | inactive: 0.975
6 | CCC1(C)OC(=O)N(C)C1=O (stereo unspecified) | inactive: 0.862
7 | CC(C)(S)[C@@H](N)C(=O)O | inactive: 1
8 | NC(N)=Nc1nc(CSCC/C(N)=N/S(N)(=O)=O)cs1 | inactive: 1.08
9 | O=c1n(CCCN2CCN(c3cccc(Cl)c3)CC2)nc2ccccn12 | inactive: 1.07
10 | CCn1nc(C(=O)O)c(=O)c2cc3c(cc21)OCO3 | inactive: 0.931
11 | O=C(c1cccnc1)N1CCOCC1 | inactive: 0.761
12 | Cc1c(NC(=O)c2cccnc2)c(=O)n(-c2ccccc2)n1C | inactive: 1.1
13 | CC(=O)c1c(O)cc(O)cc1O | inactive: 0.937
14 | CC(C)(C(=O)c1cccnc1)c1cccnc1 | inactive: 0.985
15 | CO[C@@H]1[C@@H](O[C@@H]2O[C@H](C)[C@@H](O[C@H]3C[C@@](C)(O)[C@@H](OC(=O)CC(C)C)[C@H](C)O3)[C@H](N(C)C)[C@H]2O)[C@@H](CC=O)C[C@@H](C)[C@@H](O)/C=C/C=C/C[C@@H](C)OC(=O)C[C@H]1OC(C)=O | inactive: 1.05
16 | C=C(C)[C@@H]1CC[C@]2(C)CC[C@]3(C)[C@H](CC[C@@H]4[C@@]5(C)CC[C@H](OC(C)=O)C(C)(C)[C@@H]5CC[C@]43C)[C@@H]12 | inactive: 1.15
17 | CCOC(=O)C1=C[C@]2(CC)CCCN3CCc4c(n1c1ccccc41)[C@@H]32 | inactive: 0.846
18 | Cc1cc2c(s1)Nc1ccccc1N=C2N1CCN(C)CC1 | inactive: 0.973
19 | CC(=O)SCC(Cc1ccccc1)C(=O)NCC(=O)OCc1ccccc1 (stereo unspecified) | inactive: 1.16
20 | CC1(C)S[C@@H]2[C@H](NC(=O)COc3ccccc3)C(=O)N2[C@H]1C(=O)O | inactive: 0.918
21 | CC(C)c1c(O)c(-c2cc3c(c(C(C)C)c2O)CCC2C(C)(C)CCC[C@]32C)cc2c1CCC1C(C)(C)CCC[C@]21C (stereo partly specified) | inactive: 1.15
22 | CC(=O)O[C@H]1CC[C@]2(C)[C@H]3CC[C@]45OC(=O)[C@@]6(CC[C@@H](C)[C@H](C)[C@H]64)CC[C@@]5(C)[C@]3(C)CC[C@H]2C1(C)C | inactive: 0.996
23 | COc1cc(/C=C/C(=O)N2CCC=CC2=O)cc(OC)c1OC | active: 46.3
24 | CCCCc1oc2ccc(NS(C)(=O)=O)cc2c1C(=O)c1ccc(OCCCN(CCCC)CCCC)cc1 | inactive: 0.868
25 | CN1CCN(C(c2ccccc2)c2ccccc2)CC1 | inactive: 0.976
26 | O=C(O)c1ccccc1Nc1cccc(OCc2ccc3ccccc3n2)c1 | inactive: 1.1
